Reference: patent publication EP0103381B1, “Substituted anthra(1,9-cd)pyrazol-6(2H)-ones” (WARNER-LAMBERT COMPANY, priority 1982, dated 1984)
Values joined by “and” are separate entries in the source; they are usually repeats but may differ in a detail not shown here. Identical values can stand only once. The name of at least one read-out is uncertain.

System: lymphocytic leukemia P388
Assay: in vivo lymphocytic leukemia P388 test
Design: species or system mice
Details: two single doses four days apart
How it was run: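 CD2F mice (6–7 per group) were inoculated intraperitoneally with P388 leukemia ascitic cells. Compounds were then given i.p. as two doses four days apart at various levels. Survival over 30 days was expressed as treated/control time ratio, efficacy criterion T/C×100 >125%.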

Structure (SMILES): CCN(CC)CCNc1ccc2c3c(nn2CCNCCO)-c2ccccc2C(=O)c13 [Example 23, 5-[[2-(Diethylamino)ethyl]amino]-2-[2-[(2-hydroxyethyl)amino]ethyl]anthra[1,9-cd]pyrazol-6(2H)-one]
- T/C × 100 (Percent) (P388, Dose 1.56 mg/kg intraperitoneally, listed as H, (CH2)2NH(CH2)2OH·2HCl, NH(CH2)2N(Et)2, 1.56 mg/kg): 133%
- T/C × 100 (Percent) (P388, Dose 3.12 mg/kg intraperitoneally, listed as H, (CH2)2NH(CH2)2OH·2HCl, NH(CH2)2N(Et)2, 3.12 mg/kg): 144% and 151%
- T/C × 100 (Percent) (P388, Dose 6.25 mg/kg intraperitoneally, listed as H, (CH2)2NH(CH2)2OH·2HCl, NH(CH2)2N(Et)2, 6.25 mg/kg): 146% and 150% and 142%
- T/C × 100 (Percent) (P388, Dose 12.5 mg/kg intraperitoneally, listed as H, (CH2)2NH(CH2)2OH·2HCl, NH(CH2)2N(Et)2, 12.5 mg/kg): 155% and 158% and 160%

Structure (SMILES): CCN(CC)CCNc1ccc2c3c(nn2CC(O)CN(CC)CC)-c2c(O)ccc(O)c2C(=O)c13 (centres unmarked) [Example 44]
- T/C × 100 (Percent) (P388, Dose 25 mg/kg intraperitoneally, listed as 7,10-(OH)2, CH2CHOHCH2N(Et)2·2HCl, NH(CH2)2N(Et)2, 25 mg/kg): 135%
- T/C × 100 (Percent) (P388, Dose 50 mg/kg intraperitoneally, listed as 7,10-(OH)2, CH2CHOHCH2N(Et)2·2HCl, NH(CH2)2N(Et)2, 50 mg/kg): 135%

Structure (SMILES): O=C1c2ccccc2-c2nn(CCNCCO)c3ccc(Cl)c1c23 [H; Cl*; (CH2)2NH(CH2)2OH, 5-chloro-2-[2-[(2-hydroxyethyl)amino]ethyl]anthra[1,9-cd]pyrazol-6(2H)-one]
- T/C × 100 (Percent) (P388, Dose 200 mg/kg intraperitoneally, (CH2)2NH(CH2)2OH·CH3CO2H, 200 mg/kg): 148% and 126%

Structure (SMILES): CCN(CC)CCn1nc2c3c(c(NCCN4CCOCC4)ccc31)C(=O)c1ccccc1-2 [Example 4]
- T/C × 100 (Percent) (P388, Dose 100 mg/kg intraperitoneally, listed as H, (CH2)2N(Et)2·2HCl, NH(CH2)2N[CH2)2]2O, 100 mg/kg): 126%
- T/C × 100 (Percent) (P388, Dose 200 mg/kg intraperitoneally, listed as H, (CH2)2N(Et)2·2HCl, NH(CH2)2N[CH2)2]2O, 200 mg/kg): 190% and 148%

Structure (SMILES): CN(C)CCNc1ccc2c3c(nn2CCO)-c2c(O)ccc(O)c2C(=O)c13 [Example 39]
- T/C × 100 (Percent) (P388, Dose 12.5 mg/kg intraperitoneally, listed as 7,10-(OH)2, (CH2)2OH·2HCl, NH(CH2)2N(Me)2, 12.5 mg/kg): 135% and 139%
- T/C × 100 (Percent) (P388, Dose 25 mg/kg intraperitoneally, listed as 7,10-(OH)2, (CH2)2OH·2HCl, NH(CH2)2N(Me)2, 25 mg/kg): 157% and 173%
- T/C × 100 (Percent) (P388, Dose 50 mg/kg intraperitoneally, listed as 7,10-(OH)2, (CH2)2OH·2HCl, NH(CH2)2N(Me)2, 50 mg/kg): 182%
- T/C × 100 (Percent) (P388, Dose 100 mg/kg intraperitoneally, listed as 7,10-(OH)2, (CH2)2OH·2HCl, NH(CH2)2N(Me)2, 100 mg/kg): 242%
- T/C × 100 (Percent) (P388, Dose 200 mg/kg intraperitoneally, listed as 7,10-(OH)2, (CH2)2OH·2HCl, NH(CH2)2N(Me)2, 200 mg/kg): 157% and 283%

Structure (SMILES): O=C1c2c(O)ccc(O)c2-c2nn(CCNCCO)c3ccc(NCCCNCCO)c1c23 [Example 62, 7,10-Dihydroxy-2-[2-[(2-hydroxyethyl)amino]ethyl]-5-[[3-[(2-hydroxyethyt)amino]propyl]amino]anthra[1,9-cd] pyrazol-6(2H)-one]
- T/C × 100 (Percent) (P388, Dose 1.56 mg/kg intraperitoneally, listed as 7,10-(OH)2, (CH2)2NH(CH2)2OH·2HCl, NH(CH2)3NH(CH2)2OH, 1.56 mg/kg): 201% and 166%
- T/C × 100 (Percent) (P388, Dose 3.12 mg/kg intraperitoneally, listed as 7,10-(OH)2, (CH2)2NH(CH2)2OH·2HCl, NH(CH2)3NH(CH2)2OH, 3.12 mg/kg): 186%
- T/C × 100 (Percent) (P388, Dose 6.25 mg/kg intraperitoneally, listed as 7,10-(OH)2, (CH2)2NH(CH2)2OH·2HCl, NH(CH2)3NH(CH2)2OH, 6.25 mg/kg): 169% and 254%

Structure (SMILES): NCCNCCNc1ccc2c3c(nn2CCNCCO)-c2c(O)ccc(O)c2C(=O)c13 [Example 66, 5-[[2-[(2-Aminoethyl)amino]ethyl]amino]-7,10-dihydroxy-2-[2-[(2-hydroxyethyl)amino]ethyl]anthra[1,9-cd]pyrazol-6(2H)-one]
- T/C × 100 (Percent) (P388, Dose 6.25 mg/kg intraperitoneally, listed as 7,10-(OH)2, CH2CH2NHCH2CH2OH ·HCl, NHCH2CH2NHCH2CH2NH2, 6.25 mg/kg): 194% and 157%
- T/C × 100 (Percent) (P388, Dose 12.5 mg/kg intraperitoneally, listed as 7,10-(OH)2, CH2CH2NHCH2CH2OH ·HCl, NHCH2CH2NHCH2CH2NH2, 12.5 mg/kg): 231%
- T/C × 100 (Percent) (P388, Dose 25 mg/kg intraperitoneally, listed as 7,10-(OH)2, CH2CH2NHCH2CH2OH ·HCl, NHCH2CH2NHCH2CH2NH2, 25 mg/kg): 227%

Structure (SMILES): CN(C)CCNc1ccc2c3c(nn2CCNCCO)-c2c(O)ccc(O)c2C(=O)c13 [Example 56, 5-[[2-(Dimethylamino)ethyl]amino]-7,10-dihydroxy-2-[2-[(2-hydroxyethyl)amino]ethyl]anthra[1,9-cd]pyrazol-6(2H)-one]
- T/C × 100 (Percent) (P388, Dose 1.56 mg/kg intraperitoneally, listed as 7,10-(OH)2, (CH2)2NH(CH2)2OH·2HCl, NH(CH2)2N(Me)2, 1.56 mg/kg): 165%
- T/C × 100 (Percent) (P388, Dose 6.25 mg/kg intraperitoneally, listed as 7,10-(OH)2, (CH2)2NH(CH2)2OH·2HCl, NH(CH2)2N(Me)2, 6.25 mg/kg): 182%
- T/C × 100 (Percent) (P388, Dose 12.5 mg/kg intraperitoneally, listed as 7,10-(OH)2, (CH2)2NH(CH2)2OH·2HCl, NH(CH2)2N(Me)2, 12.5 mg/kg): 220% and 250%

Structure (SMILES): COCCn1nc2c3c(c(NCCNCCO)ccc31)C(=O)c1c(O)ccc(O)c1-2 [Example 76, 7,10-Dihydroxy-5-[[2-[(2-hydroxyethyl)amino]ethyl]amino]-2-(2-methoxyethyl)anthra[1,9-cd]pyrazol-6(2H)-one]
- T/C × 100 (Percent) (P388, Dose 25 mg/kg intraperitoneally, listed as 7,10-(OH)2, (CH2)2OMe·HCl, NH(CH2)2NH(CH2)2OH, 25 mg/kg): 131%
- T/C × 100 (Percent) (P388, Dose 100 mg/kg intraperitoneally, listed as 7,10-(OH)2, (CH2)2OMe·HCl, NH(CH2)2NH(CH2)2OH, 100 mg/kg): 140%

Structure (SMILES): CN(C)CCn1nc2c3c(c(NCCNCCO)ccc31)C(=O)c1c(O)ccc(O)c1-2 [Example 32]
- T/C × 100 (Percent) (P388, Dose 3.12 mg/kg intraperitoneally, listed as 7,10-(OH)2, (CH2)2N(Me)2·2HCl, NH(CH2)2NH(CH2)2OH, 3.12 mg/kg): 192% and 171%
- T/C × 100 (Percent) (P388, Dose 12.5 mg/kg intraperitoneally, listed as 7,10-(OH)2, (CH2)2N(Me)2·2HCl, NH(CH2)2NH(CH2)2OH, 12.5 mg/kg): 242% and 182%

Structure (SMILES): O=C1c2c(O)ccc(O)c2-c2nn(CCNCCO)c3ccc(Cl)c1c23 [7,10-(OH)2; Cl*; (CH2)2NH(CH2)2OH, 5-Chloro-7,10-dihydroxy-2-[2-[(2-hydroxyethyl)amino]ethyl]anthra[1,9-cd]pyrazol-6(2H)-one]
- T/C × 100 (Percent) (P388, Dose 12.5 mg/kg intraperitoneally, listed as OH, (CH2)2NH(CH2)2OH·HCl, 12.5 mg/kg): 140%
- T/C × 100 (Percent) (P388, Dose 25 mg/kg intraperitoneally, listed as OH, (CH2)2NH(CH2)2OH·HCl, 25 mg/kg): 145%

Structure (SMILES): CN(C)CCNCCNc1ccc2c3c(nn2CCCN)-c2c(O)ccc(O)c2C(=O)c13 [Example 91]
- T/C × 100 (Percent) (P388, Dose 12.5 mg/kg intraperitoneally, listed as 7,10-(OH)2, CH2CH2CH2NH2·3HCl, NHCH2CH2NHCH2CH2NMe2, 12.5 mg/kg): 219% and 123%
- T/C × 100 (Percent) (P388, Dose 25 mg/kg intraperitoneally, listed as 7,10-(OH)2, CH2CH2CH2NH2·3HCl, NHCH2CH2NHCH2CH2NMe2, 25 mg/kg): 228% and 130%

Structure (SMILES): NCCn1nc2c3c(c(NCCNCCO)ccc31)C(=O)c1ccccc1-2 [Example 27, 2-(2-Aminoethyl)-5-[[2-[(2-hydroxyethyl)amino]ethyl]amino]anthra[1,9-cd]pyrazol-6(2H)-one]
- T/C × 100 (Percent) (P388, Dose 3.12 mg/kg intraperitoneally, listed as H, (CH2)2NH2·2HCl, NH(CH2)2NH(CH2)2OH, 3.12 mg/kg): 158%
- T/C × 100 (Percent) (P388, Dose 6.25 mg/kg intraperitoneally, listed as H, (CH2)2NH2·2HCl, NH(CH2)2NH(CH2)2OH, 6.25 mg/kg): 173%
- T/C × 100 (Percent) (P388, Dose 12.5 mg/kg intraperitoneally, listed as H, (CH2)2NH2·2HCl, NH(CH2)2NH(CH2)2OH, 12.5 mg/kg): 177%

Structure (SMILES): CN(C)CCCn1nc2c3c(c(NCCNCCO)ccc31)C(=O)c1c(O)ccc(O)c1-2 [Example 46, 2-[3-(Dimethylamino)propyl]-7,10-dihydroxy-5-[[2-[(2-hydroxyethyl)amino]ethyl]amino]anthra[1,9-cd]pyrazol-6(2H)-one]
- T/C × 100 (Percent) (P388, Dose 6.25 mg/kg intraperitoneally, listed as 7,10-(OH)2, CH2CH2CH2NMe2·2HCl, NHCH2CH2NHCH2CH2OH, 6.25 mg/kg): 167%
- T/C × 100 (Percent) (P388, Dose 12.5 mg/kg intraperitoneally, listed as 7,10-(OH)2, CH2CH2CH2NMe2·2HCl, NHCH2CH2NHCH2CH2OH, 12.5 mg/kg): 203%

Structure (SMILES): CN(C)CCNc1ccc2c3c(nn2CCNCCO)-c2ccccc2C(=O)c13 [Example 25, 2-[2-[(2-Hydroxyethyl)amino]ethyl]-5-[[2-(dimethylamino)ethyl]amino]anthra[1,9-cd]pyrazol-6(2H)-one]
- T/C × 100 (Percent) (P388, Dose 6.25 mg/kg intraperitoneally, listed as H, (CH2)2NH(CH2)2OH·2HCl, NH(CH2)2N(Me)2, 6.25 mg/kg): 174%
- T/C × 100 (Percent) (P388, Dose 12.5 mg/kg intraperitoneally, listed as H, (CH2)2NH(CH2)2OH·2HCl, NH(CH2)2N(Me)2, 12.5 mg/kg): 168%
